# In article PMC12820563:
# The other results are listed elsewhere or left out. The list includes weakly bound sequences.
# Molecular target: T1, MBP-FoxP3dN (UniProt Q99JB6)
# T1 sequence: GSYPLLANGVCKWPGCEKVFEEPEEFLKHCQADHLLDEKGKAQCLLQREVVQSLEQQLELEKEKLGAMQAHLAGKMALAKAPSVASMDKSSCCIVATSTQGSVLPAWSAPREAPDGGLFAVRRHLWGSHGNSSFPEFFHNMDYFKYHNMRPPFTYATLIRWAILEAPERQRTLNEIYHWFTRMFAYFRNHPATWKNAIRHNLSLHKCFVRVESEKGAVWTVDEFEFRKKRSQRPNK
# Assay: PD-seq (MBP pull-down with sequencing)
# Settings: 20 mM Tris-HCl pH 7.5, 100 mM NaCl, 1.5 mM MgCl2, 0.4 uM protein, 0.1 uM dsDNA library, 30 min, room temperature, amylose pull-down; high values mean tight binding; double strand, one strand shown
row,Sequence,binding signal (RPM ratio (pull-down/input))
1,GATGATTGTTCTCCCAGCTGATGAATTGTCATAGTCGAGTAAACAAATTTTCCTAATCTTTCTGTTCAAGCGCCATCTAC,0.489
2,GATGATTGTTCTCCCAGCTGATGAATTCGACGCCTCGAGTAAACAAATTTTCCTAATCTTTCTGTTCAAGCGCCATCTAC,0.672
3,GATGATTGTTCTCCCAGCTGATGAATTATATGCGTCGAGTAAACAAATTTTCCTAATCTTTCTGTTCAAGCGCCATCTAC,1.07
4,GATGATTGTTCTCCCAGCTGATGAATTTCGTAAATCGAGTAAACAAATTTTCCTAATCTTTCTGTTCAAGCGCCATCTAC,0.336
5,GATGATTGTTCTCCCAGCTGATGAATTACTGATTTCGAGTAAACAAATTTTCCTAATCTTTCTGTTCAAGCGCCATCTAC,0.523
6,GATGATTGTTCTCCCAGCTGATGAATTCCGGGGATCGAGTAAACAAATTTTCCTAATCTTTCTGTTCAAGCGCCATCTAC,0.277
7,GATGATTGTTCTCCCAGCTGATGAATTAGCATCGTCGAGTAAACAAATTTTCCTAATCTTTCTGTTCAAGCGCCATCTAC,2.39
8,GATGATTGTTCTCCCAGCTGATGAATTCCATGTTTCGAGTAAACAAATTTTCCTAATCTTTCTGTTCAAGCGCCATCTAC,0.693
9,GATGATTGTTCTCCCAGCTGATGAATTATCCATGTCGAGTAAACAAATTTTCCTAATCTTTCTGTTCAAGCGCCATCTAC,0.326
10,GATGATTGTTCTCCCAGCTGATGAATTTATCGTCTCGAGTAAACAAATTTTCCTAATCTTTCTGTTCAAGCGCCATCTAC,2.76
11,GATGATTGTTCTCCCAGCTGATGAATTCTATGAGTCGAGTAAACAAATTTTCCTAATCTTTCTGTTCAAGCGCCATCTAC,1
12,GATGATTGTTCTCCCAGCTGATGAATTACGAGATTCGAGTAAACAAATTTTCCTAATCTTTCTGTTCAAGCGCCATCTAC,0.436
13,GATGATTGTTCTCCCAGCTGATGAATTTCCTCTATCGAGTAAACAAATTTTCCTAATCTTTCTGTTCAAGCGCCATCTAC,0.305
14,GATGATTGTTCTCCCAGCTGATGAATTTCAGATGTCGAGTAAACAAATTTTCCTAATCTTTCTGTTCAAGCGCCATCTAC,0.303
15,GATGATTGTTCTCCCAGCTGATGAATTCCCTCAATCGAGTAAACAAATTTTCCTAATCTTTCTGTTCAAGCGCCATCTAC,0.217
16,GATGATTGTTCTCCCAGCTGATGAATTTCAGAGTTCGAGTAAACAAATTTTCCTAATCTTTCTGTTCAAGCGCCATCTAC,0.365
17,GATGATTGTTCTCCCAGCTGATGAATTATGTGGATCGAGTAAACAAATTTTCCTAATCTTTCTGTTCAAGCGCCATCTAC,1.68
18,GATGATTGTTCTCCCAGCTGATGAATTTGCTACTTCGAGTAAACAAATTTTCCTAATCTTTCTGTTCAAGCGCCATCTAC,1.05
19,GATGATTGTTCTCCCAGCTGATGAATTATGTAACTCGAGTAAACAAATTTTCCTAATCTTTCTGTTCAAGCGCCATCTAC,3.27
20,GATGATTGTTCTCCCAGCTGATGAATTTATCCGTTCGAGTAAACAAATTTTCCTAATCTTTCTGTTCAAGCGCCATCTAC,0.58

row,Sequence,binding signal (RPM ratio (pull-down/input))
1,GATGATTGTTCTCCCAGCTGATGAATTATGCGGGTCGAGTAAACAAATTTTCCTAATCTTTCTGTTCAAGCGCCATCTAC,1.37
2,GATGATTGTTCTCCCAGCTGATGAATTTATTGTGTCGAGTAAACAAATTTTCCTAATCTTTCTGTTCAAGCGCCATCTAC,6.95
3,GATGATTGTTCTCCCAGCTGATGAATTTTTCACGTCGAGTAAACAAATTTTCCTAATCTTTCTGTTCAAGCGCCATCTAC,0.22
4,GATGATTGTTCTCCCAGCTGATGAATTACGGAATTCGAGTAAACAAATTTTCCTAATCTTTCTGTTCAAGCGCCATCTAC,0.665
5,GATGATTGTTCTCCCAGCTGATGAATTATTTGATTCGAGTAAACAAATTTTCCTAATCTTTCTGTTCAAGCGCCATCTAC,0.569
6,GATGATTGTTCTCCCAGCTGATGAATTGACAAATTCGAGTAAACAAATTTTCCTAATCTTTCTGTTCAAGCGCCATCTAC,0.5
7,GATGATTGTTCTCCCAGCTGATGAATTCAAATAGTCGAGTAAACAAATTTTCCTAATCTTTCTGTTCAAGCGCCATCTAC,0.435
8,GATGATTGTTCTCCCAGCTGATGAATTCTCTACATCGAGTAAACAAATTTTCCTAATCTTTCTGTTCAAGCGCCATCTAC,0.288
9,GATGATTGTTCTCCCAGCTGATGAATTTAGTGTATCGAGTAAACAAATTTTCCTAATCTTTCTGTTCAAGCGCCATCTAC,3.23
10,GATGATTGTTCTCCCAGCTGATGAATTAGGTGGATCGAGTAAACAAATTTTCCTAATCTTTCTGTTCAAGCGCCATCTAC,0.477
11,GATGATTGTTCTCCCAGCTGATGAATTCGTAGTTTCGAGTAAACAAATTTTCCTAATCTTTCTGTTCAAGCGCCATCTAC,0.964
12,GATGATTGTTCTCCCAGCTGATGAATTCAGCAAGTCGAGTAAACAAATTTTCCTAATCTTTCTGTTCAAGCGCCATCTAC,1.26
13,GATGATTGTTCTCCCAGCTGATGAATTGCGTTGTTCGAGTAAACAAATTTTCCTAATCTTTCTGTTCAAGCGCCATCTAC,3.52
14,GATGATTGTTCTCCCAGCTGATGAATTGTGCGGATCGAGTAAACAAATTTTCCTAATCTTTCTGTTCAAGCGCCATCTAC,0.628
15,GATGATTGTTCTCCCAGCTGATGAATTATAAATATCGAGTAAACAAATTTTCCTAATCTTTCTGTTCAAGCGCCATCTAC,1.12
16,GATGATTGTTCTCCCAGCTGATGAATTTACTCGATCGAGTAAACAAATTTTCCTAATCTTTCTGTTCAAGCGCCATCTAC,0.39
17,GATGATTGTTCTCCCAGCTGATGAATTCGCGGGGTCGAGTAAACAAATTTTCCTAATCTTTCTGTTCAAGCGCCATCTAC,0.351
18,GATGATTGTTCTCCCAGCTGATGAATTGTGTATGTCGAGTAAACAAATTTTCCTAATCTTTCTGTTCAAGCGCCATCTAC,5.84
19,GATGATTGTTCTCCCAGCTGATGAATTCTCTGAGTCGAGTAAACAAATTTTCCTAATCTTTCTGTTCAAGCGCCATCTAC,0.184
20,GATGATTGTTCTCCCAGCTGATGAATTGACGCGGTCGAGTAAACAAATTTTCCTAATCTTTCTGTTCAAGCGCCATCTAC,0.6
